Assay results reported in PubChem BioAssay AID602293 (National Center for Advancing Translational Sciences (NCATS), 2012).
Hit rate of the full screen: of about 1,300 compounds, about 30 (2%) were called active. About 10% were inconclusive and are not listed. Calls follow the shape of the dose curve; as a rule, active = well fitted inhibition curve with a large enough effect; inconclusive = small, poorly fitted or top-dose-only effect; inactive = flat fitted curve, though single readings scatter. This is one part of the list.

assay: qHTS for antagonists of the Thyroid Stimulation Hormone Receptor: Hit Validation in HTRF Activity in a Luteinizing Hormone Receptor Cell Line; conditions: LHR-expressing cell line, cAMP HTRF, antagonist mode; series mostly up to 58 µM; activity change, negative = inhibition: at the top concentration
Summary of the method: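 HEK 293 cells stably expressing LH receptor, in DMEM with 10% FCS and 100 uM RO 20-1724, incubated with compound 30 min at room temperature. cAMP measured by competitive HTRF (anti-cAMP cryptate vs cAMP-d2), excitation 330 nm, emissions 615 and 660 nm.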
% is scaled to controls: 0 for no effect and ±100 for the full control effect; potency is read from the fitted curve at half-maximal effect.

Compound	activity change, negative = inhibition	Potency
CSc1ccccc1OCc1cc(C(=O)NC2CCc3ccccc32)no1 (configuration not stated)	inactive: 2.6%	–
CSC1=NSC2=NC(=O)/C(=C\c3coc4ccccc4c3=O)C(=N)N12	inactive: 0.028%	–
C=CC(C)(C)c1c2occc2c(O)c2ccc(=O)oc12	inactive: 0.737%	–
COc1c(/C=C2\SC(=Nc3ccccc3Cl)NC2=O)cccc1[N+](=O)[O-]	inactive: 1.86%	–
Cc1ccc(C(=O)N2c3ccccc3N(Cc3ccccc3)C(=O)C2(C)C)cc1	inactive: -7.47%	–
CN(Cc1ccccc1)S(=O)(=O)c1ccc(OCC(=O)NCc2ccccn2)cc1	inactive: 0.458%	–
COc1ccc(CNC(=O)C(c2ccco2)N(C(=O)c2snc(C(N)=O)c2N)c2cccc(OC)c2)cc1 (configuration not stated)	–	active: 13.5 µM
CCN(CC)c1ccc(C(=O)OCC(=O)N2CCCC2)cc1	inactive: 2.17%	–
Cc1ccc(S(=O)(=O)Nc2ccccc2N2CCCCC2)cc1	inactive: -4.31%	–
O=c1[nH]c(-c2ccccc2F)nc2c1sc(=S)n2Cc1ccccc1	inactive: 0.33%	–
O=C(/C=C/c1ccc(OCCCF)cc1)Nc1ccnc(-c2ccncc2)n1	inactive: -6.44%	–
Cc1nn(-c2ccccc2)c(Cl)c1CN(C(=O)CCl)c1ccc(Cl)cc1	inactive: -4.49%	–
C=C(C)c1cccc(C(C)(C)NC(=O)N(Cc2ccccc2)Cc2ccco2)c1	inactive: -2.7%	–
C=CCN1C(=O)C(Cc2ccc(OC)cc2)S/C1=N/N=C/c1ccco1 (configuration not stated)	inactive: 0.197%	–
COC(=O)c1ccc(-c2noc(CN(C)CCC3CCCCO3)n2)cc1 (configuration not stated)	inactive: -0.562%	–
CCN(CC)S(=O)(=O)c1cccc(NC(=O)CCSc2ccc(Cl)cc2)c1	inactive: -2.51%	–
O=C(N[C@H]1C/C=C\C(c2ccc(F)cc2)N(Cc2ccccc2)C(=O)C1)OCC1c2ccccc2-c2ccccc21 (some centres not stated)	inactive: -0.514%	–
O=C(O)c1ccc(NC2=C/C(=N/S(=O)(=O)c3ccccc3)c3ccccc3C2=O)cc1	inactive: -0.0131%	–
CCOC(=O)N1CCN(C(=O)c2ccc3c(c2)N=C(CC)c2cc(C)ccc2S3)CC1	inactive: -1.95%	–
CC(C)(C)OC(=O)N[C@@H](Cc1ccccc1)c1nnc(S(=O)(=O)Cc2cccc(F)c2)o1	inactive: -1.91%	–
COc1ccccc1CNS(=O)(=O)c1ccc(-n2cccn2)cc1	inactive: 1.53%	–
CC(C)c1ccccc1OCCNC(=O)c1cccnc1	inactive: 2.01%	–
CCOC(=O)Cn1c(=NC(=O)CSC(C)=O)sc2ccccc21	inactive: -4.14%	–

Compound	activity change, negative = inhibition	Potency
COc1cc(OC)cc(-c2cc3cc4c(cc3cn2)OCO4)c1	inactive: -6.3%	–
Cc1ccccc1-n1sc2cc(F)ccc2c1=O	inactive: -0.805%	–
O=C(CN1C(=O)NC2(CCCCCC2)C1=O)N1CCC(Cc2ccccc2)CC1	inactive: -0.781%	–
C=CCN(c1ccccc1)S(=O)(=O)c1ccc2[nH]cc(C(=O)NCCOC)c(=O)c2c1	inactive: 0.331%	–
C/C(=N/OCO/N=C(/C)c1ccc(F)cc1)c1ccc(F)cc1	inactive: 2.18%	–
O=C(Nc1ccncc1)Nc1cc(Cl)ccc1Cl	inactive: -0.049%	–
Nc1c(C(=O)NCc2ccc3c(c2)OCO3)nnn1CC(=O)Nc1ccc(Br)cc1	inactive: 1.7%	–
COC(=O)c1ccc(C2C(Oc3ccccc3C)C(=O)N2CCc2ccc(OC)c(OC)c2)cc1 (configuration not stated)	inactive: -0.367%	–
Clc1c(CSc2nc3ccccc3o2)nc2ccccn12	inactive: 1.57%	–
COCCNc1cnn(-c2ccccc2)c(=O)c1Cl	inactive: 2.21%	–
CC(=O)c1ccc(S(=O)(=O)N2CCN(CCOc3ccc(Br)cc3)CC2)cc1	inactive: -6.47%	–
O=C1C=C(c2ccc(Cl)c(C(F)(F)F)c2)C[C@@H](c2ccc(Cl)cc2)C1	inactive: 0.68%	–
O=C(Nc1ccn(Cc2ccccc2F)n1)c1ccc(COc2ccccc2Cl)cc1	inactive: -8.68%	–
CC1CCN(CCCNC(=O)CN2C(=O)CSc3ccc(S(=O)(=O)N4CCOCC4)cc32)CC1	inactive: 0.922%	–
Cc1cc(C(=O)CCl)c(C)n1CCc1ccccc1	inactive: -0.254%	–
C=C(C)CNc1cc(S(=O)(=O)N2CCOCC2)ccc1Oc1ccccc1	inactive: -2.45%	–
Cc1cccc(NC(=O)CCN2CCN(C)CC2)c1	inactive: 0.909%	–
COC(=O)c1c(NC(NC(=O)CC(C)C)C(Cl)(Cl)Cl)sc2c1CCC2 (configuration not stated)	inactive: -2.49%	–
CCOC(=O)c1c(NC(NC(=O)C(C)C)C(Cl)(Cl)Cl)sc2c1CCC2 (configuration not stated)	inactive: -0.795%	–
CCOc1ccccc1NC(=O)C1(S(=O)(=O)c2ccc(Cl)cc2)CC1	inactive: 1.77%	–
Cn1c(CNC(=O)c2ccc(Cl)cc2)nnc1SCC(=O)NC1CCCC1	inactive: 2.45%	–
C=CCNc1ncnc2ccc(Br)cc12	inactive: -1.43%	–
O=C1NC(=S)S/C1=C\c1cc2ccccc2nc1N1CCCCC1	inactive: -1.93%	–

Compound	activity change, negative = inhibition	Potency
CCOc1ccc(Nc2nc(Cc3nnc(SCC(=O)c4ccc(C)cc4)o3)cs2)cc1	inactive: 0.729%	–
CC(C)NC(=O)COc1coc(CN2CCN(c3ccccc3F)CC2)cc1=O	inactive: -1.04%	–
CCc1ccc(NS(=O)(=O)c2cc3[nH]c(=O)c(=O)[nH]c3cc2C)cc1	inactive: 1.73%	–
COc1ccc(/C=C2/SC(=S)NC2=O)cc1OCc1ccccc1	inactive: -0.852%	–
CC(C)C1Nc2ccc(C(=O)N3CCN(c4ccccn4)CC3)cc2NC1=O (configuration not stated)	inactive: 0.794%	–
Cc1ccccc1NC(=O)C1(C)Cc2ccccc2C(=O)O1 (configuration not stated)	inactive: 0.461%	–
COC(=O)c1ccc(/C(O)=C(\C#N)c2nc3ccccc3s2)cc1	inactive: -2.62%	–
CCOC(=O)c1c(-c2ccccc2)csc1NC(=O)CSc1nnnn1C	inactive: -1.45%	–
COc1ccc(CNC(=O)CCS(=O)(=O)c2cc3c(cc2Cl)NC(=O)CO3)cc1	inactive: -1.07%	–
Cc1onc(-c2c(Cl)cccc2Cl)c1C(=O)N1CCc2ccccc2C1	inactive: 0.0011%	–
Cc1cc(OCc2cc(C(=O)NCc3csc(C(C)C)n3)no2)cc(C)c1Cl	inactive: -5.46%	–
CC(C)Oc1ccc(C(=O)NCCNC(=O)c2ccco2)cc1	inactive: -1.04%	–
Cc1onc(-c2ccccc2Cl)c1C(=O)NC(=S)Nc1ccc(C(C)(C)C)cc1	inactive: -1.66%	–
CCOc1ncccc1C(=O)Nc1ccc(C)c(S(=O)(=O)N2CCCCCC2)c1	inactive: -6.55%	–
O=C(Nc1ccc(Cl)cc1)c1cc2c(cc1O)[nH]c1ccccc12	inactive: -4.57%	–
COc1ccc(/C=C/C(=O)Nc2nc(C)cc(C)n2)cc1OC	inactive: 1.32%	–
CCCc1ccc(-c2c(C)sc(NC(=O)c3ccnn3C)c2C#N)cc1	inactive: -2.95%	–
COc1cccc(-c2nc(-c3ccc(NC(=O)c4cccnc4)cc3)no2)c1	inactive: -3.43%	–
CC(C)CN=Cc1c(O)c([N+](=O)[O-])cc2oc3c(c12)CCCC3	inactive: 3.45%	–
Cc1cccc(/C=C/C(=O)c2cc(Br)ccc(=O)c2O)c1	inactive: -0.0449%	–
Cc1cc2nc(-c3ccc(NC(=O)c4cccnc4)cc3)oc2cc1C	inactive: -7.47%	–
